{
  "source": "paper PMC12136788",
  "binders": {"B1": {"name": "chr21:34512026:34512195:-|three_prime_utr|ENSG00000288711|control|control|control (ssRNA)", "RNA": "GGGAGUUCUACAGUCCGACGAUCACACUACCGGAUCCUCCGAGGGUGAUGGUUCUCAAGAAGGCAGAAGCAAUGGUGACCAAUAGACCUCCUUAAAGGCUGAGCCGCUGGGCACCUUCCUACUCCUCUCGACCGUGCUAGGAUCAACAGAGGAUUGAGCAUCA"}, "B2": {"name": "ENSG00000066084:stop:overlap|stop_codon|ENSG00000066084|stop_codon|NA|stop_codon (ssRNA)", "RNA": "GGGAGUUCUACAGUCCGACGAUCACUGGCAGCCACACAUCUCACCUGCUGGGACAGAACCGGCAUACAUUGAGGGGAAACAAUAGUAAAUGUCUUAGACUUUAAGAAGGAUGCUGGGCUGUGGCACGGCAUGUUUGCGAAUGUCAACAGAGGAUUGAGCAUCA"}, "B3": {"name": "chr17:66805439:66805473:+|3pUTR|ENSG00000154229|msi1_unk|FALSE|overlapping (ssRNA)", "RNA": "GGGAGUUCUACAGUCCGACGAUCCACAAUUGUGCUCUAUUUGUGCAGGUUCUUGUUUCUAAUCCUCUUUUCUAAUUAAGUUUUAGCUGAAUCCCUUGCUUCUGUGCUUUCCCUCCCUGCACAUGGGCACUGUAUCAGAUAGAUCAACAGAGGAUUGAGCAUCA"}, "B4": {"name": "chr1:96820056:96820157:+|3pUTR|ENSG00000117569|unk|total|mutant (ssRNA)", "RNA": "GGGAGUUCUACAGUCCGACGAUCCCGUGUAAUAUAUAUAUAACCGCUCUAAUUAUAAAUACACUUUUACUCUGGAAAAAGCACCGACAUUGACAUAAGAGACAUUUAAAAACCAUUAUUUUCUCAUCUGUAAAAUGGAGAGAACAACAGAGGAUUGAGCAUCA"}, "B5": {"name": "chr7:97024268:97024623:-|CDS|ENSG00000105880|control|control|control (ssRNA)", "RNA": "GGGAGUUCUACAGUCCGACGAUCGGCGUGAACGGCUCCGCCGGGAGCUACCCAGCCAAAGCUUAUGCCGACUAUAGCUACGCUAGCUCCUACCACCAGUACGGCGGCGCCUACAACCGCGUCCCAAGCGCCACCAACCAGCCACAACAGAGGAUUGAGCAUCA"}, "B6": {"name": "chr13:30280108:30280219:-|CDS|ENSG00000102781|unk|FALSE|bound_elsewhere (ssRNA)", "RNA": "GGGAGUUCUACAGUCCGACGAUCUAAGGUUCGGCAGGAAUUAUUGGAGGAAUAUGAACAAGUUAAAAGUAUUGUCAGCACUUUAGAAAGUUUUAAAAUUGACAAGCCUCCAGAUUUCCCUGUGUCCUGUCAAGAUGAACCAUUCAACAGAGGAUUGAGCAUCA"}, "B7": {"name": "chr6:43287355:43287456:+|3pUTR|ENSG00000146216|unk|FALSE|unique (ssRNA)", "RNA": "GGGAGUUCUACAGUCCGACGAUCUAUGACUCCUGGUGCCCAGGCCCUGGGCCUGCUCCUUGCCACCAACCGAACCGUGAAUGUAGGGCCCCCAGCCUCACCUCUGCCCCAGGACCAACAACACCCUGGUUUGGAGCUGGGAGGCAACAGAGGAUUGAGCAUCA"}, "B8": {"name": "ENSG00000070961:be:win_201|CDS|ENSG00000070961|bound_else_gene|NA|bound_elsewhere_windowed (ssRNA)", "RNA": "GGGAGUUCUACAGUCCGACGAUCCAAUGAAGGUUUAAGUGGAAACCCUGCAGAUUUAGAAAGAAGAGAAGCAGUGUUUGGAAAGAAUUUUAUACCUCCUAAAAAGCCAAAAACCUUUCUUCAAUUAGUAUGGGAAGCAUUACACAACAGAGGAUUGAGCAUCA"}, "B9": {"name": "chr21:25881503:25881610:-|3pUTR|ENSG00000142192|msi1_unk|FALSE|overlapping (ssRNA)", "RNA": "GGGAGUUCUACAGUCCGACGAUCACAAACCCGUUUUAUGAUUUACUCAUUAUCGCCUUUUGACAGCUGUGCUGUAACACAAGUAGAUGCCUGAACUUGAAUUAAUCCACACAUCAGUAAUGUAUUCUAUCUCUCUUUACAUUUCAACAGAGGAUUGAGCAUCA"}, "B10": {"name": "chr1:16124655:16124788:-|3pUTR|ENSG00000142627|msi1|total|mutant (ssRNA)", "RNA": "GGGAGUUCUACAGUCCGACGAUCAGACUGUGAACUUGACUGGGUGAGACCCAAAGCGGUCCCUGUCCCUCCCGUGCCUUCUUCCGACCCUCGGGCCCCAUCCUCAUCCCUGACUGGCCAAACCCUUGCUUUCCUGGGCCUUUGCAACAGAGGAUUGAGCAUCA"}, "B11": {"name": "chr1:226361101:226361261:-|3pUTR|ENSG00000143799|msi1|total|mutant (ssRNA)", "RNA": "GGGAGUUCUACAGUCCGACGAUCUUUCUUGCCAGGCCGAUAAAACUGACACCGAGAAAAGGCUGGAGAGAGAUUCUGUUGCACCGACCCGUCCUAUGGAAAAAACCAAGCUUCGUCCGAAUGUCUGCCUUACUGGUUUCCCCACAACAGAGGAUUGAGCAUCA"}, "B12": {"name": "ENSG00000123983:stop:overlap|stop_codon|ENSG00000123983|stop_codon|NA|stop_codon (ssRNA)", "RNA": "GGGAGUUCUACAGUCCGACGAUCGUGAUGCCAGACGUUUUUUUGGGUGUGGGACUACAAUACUGGCAGAGUGGGAGCACCAUUAGUUUGCUGUGAAAUCAAAUUAAAAAACUGGGAGGAAGGUGGAUACUUUAAUACUGAUAACAACAGAGGAUUGAGCAUCA"}, "B13": {"name": "chr11:61799969:61800070:-|3pUTR|ENSG00000149485|msi1|total|mutant (ssRNA)", "RNA": "GGGAGUUCUACAGUCCGACGAUCUUCUUUGCCACCUUUUGGGUGUGGUGUCACCAGCCUGUUCCGCCAAGCCGCUUUGGGCACCGGCUGCCCAAUCUGAGCAAACACCAGUGAGGCUCUAUUGAGCCAAGACCAAGUCCUCAACAACAGAGGAUUGAGCAUCA"}, "B14": {"name": "chr19:42216679:42217007:-|CDS|ENSG00000160570|control|control|control (ssRNA)", "RNA": "GGGAGUUCUACAGUCCGACGAUCCUUUCUGCUGGAUGAGGCUCCUGGCGCCGCCGGAGGCUUAGCCCGGGCCCGCAGCGGCCUAGAGCUCCUGCUGGAGCUGGAGCGCCGCGGGCAGUGCGACGAGAGCAACCUGCGGCUGCUCAACAGAGGAUUGAGCAUCA"}},
  "note": "The other results are listed elsewhere or left out.",
  "data": [
    {"target": "T1, UNK ZnF1-6 (called full-length) (human, UniProt Q9C0B0 30-357)", "T1 sequence": "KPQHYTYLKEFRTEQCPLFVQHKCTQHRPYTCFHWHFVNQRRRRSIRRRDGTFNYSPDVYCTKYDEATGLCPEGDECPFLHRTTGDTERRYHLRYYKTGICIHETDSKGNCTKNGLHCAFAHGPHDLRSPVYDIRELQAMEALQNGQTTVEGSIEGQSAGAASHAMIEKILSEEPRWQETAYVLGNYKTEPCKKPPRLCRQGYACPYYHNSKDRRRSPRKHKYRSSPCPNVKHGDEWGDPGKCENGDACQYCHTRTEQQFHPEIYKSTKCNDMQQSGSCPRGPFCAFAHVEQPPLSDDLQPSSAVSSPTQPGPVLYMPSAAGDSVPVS", "test": "nsRBNS (natural sequence RNA bind-n-seq); RBNS binding buffer (assumed for nsRBNS): 25 mM Tris pH 7.5, 150 mM KCl, 3 mM MgCl2, 0.01% Triton X-100, 500 ug/ml BSA, 20 U/ml SUPERase-In, 4 C; UNK is unkempt and MSI1 is Musashi-1; names of the RNAs are library labels; protein concentration not given here; high values mean tight binding", "units": {"binding signal": "enrichment R"}, "values": [
      {"binder": "B1", "binding signal": 0.707},
      {"binder": "B2", "binding signal": 1.59},
      {"binder": "B3", "binding signal": 1.41},
      {"binder": "B4", "binding signal": 0.588},
      {"binder": "B5", "binding signal": 0.607},
      {"binder": "B6", "binding signal": 0.597},
      {"binder": "B7", "binding signal": 0.933},
      {"binder": "B8", "binding signal": 1.02},
      {"binder": "B9", "binding signal": 0.517},
      {"binder": "B10", "binding signal": 1.06},
      {"binder": "B11", "binding signal": 0.526},
      {"binder": "B12", "binding signal": 1.28},
      {"binder": "B13", "binding signal": 0.477},
      {"binder": "B14", "binding signal": 0.347}
    ]}
  ]
}
